The supplement of paper PMC3724861
This is one part of the list.

system: T1, Caupolican (Caup) homeodomain DNA-binding domain; test: PBM E-score (8-mer, recovered from the published 9-mer minima) (E-score (dimensionless, -0.5 to 0.5)); Drosophila protein; higher = stronger relative binding preference, active = 0.31 or more
T1 sequence: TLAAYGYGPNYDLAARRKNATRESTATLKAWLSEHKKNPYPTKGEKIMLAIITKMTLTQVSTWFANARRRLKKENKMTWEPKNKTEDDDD
Summary of the method: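 An enrichment score, with higher meaning stronger, expresses relative binding preference for each short DNA word. The protein used was Caup's homeodomain DNA-binding domain (residues 214-303), produced by in vitro transcription and translation and tested at 100 nM on custom-designed protein binding microarrays. The 8-mer values were recovered from published 9-mer scores, each equal to the lower of its two constituent 8-mer scores.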

Sequence	PBM E-score
GTCGTAAA	inactive: 0.16
CGTATAGC	inactive: -0.0127
AGAACAAT	inactive: 0.21
CACTACTC	inactive: 0.0638
ACCAAAGA	inactive: 0.0532
TAGCAATA	inactive: 0.118
ATTGGGAG	inactive: -0.0672
ATGCACTG	inactive: 0.0844
AATATTTA	inactive: 0.179
GCCAAGGC	inactive: -0.29
CAGTGTCG	inactive: 0.131
CTAAAAAG	inactive: -0.0645
TCCACACA	inactive: 0.0566
AGATCGAC	inactive: 0.0993
AAATTCGA	inactive: 0.00593
GGCATTGA	inactive: -0.0356
CGAACGCC	inactive: -0.163
AGCGGAAT	inactive: -0.0438
GATCATTA	≥ 0.154
AGCTGGGC	inactive: -0.237
GCAGTCAA	inactive: 0.0352
CCAAATGA	inactive: 0.0802
CACGATAG	inactive: 0.0391
AGTTACAG	inactive: 0.189
ACACGGTC	inactive: 0.219

Sequence	PBM E-score
AAATGTGA	inactive: 0.18
CCTTGTCA	active: 0.342
AGCGCTCA	inactive: -0.198
AATGACGA	inactive: 0.155
AATATTGC	inactive: 0.153
CACACAGC	inactive: -0.0631
CCTGAATA	inactive: 0.0561
CATAATAA	inactive: 0.196
AATTGCGT	inactive: -0.0149
ACTCTCAC	inactive: -0.0203
AGATACTG	inactive: 0.0481
CAGAGGCA	inactive: -0.086
AGACGGAT	inactive: 0.0063
AAGCCGCT	inactive: -0.189
ATAGAAAA	≥ 0.147
ACCGTATA	inactive: 0.0588
ATATGTAC	active: 0.387
CGCGCACC	≥ -0.0925
AGAGCAGA	inactive: 0.00149
GAACGCGA	≥ 0.0514
CGAATTCG	inactive: -0.111
GCATATCC	inactive: 0.0416
CGTCCAGA	inactive: -0.161
TACTACCA	inactive: 0.138
CAAAGATA	inactive: 0.0292

Sequence	PBM E-score
ATCGGATC	inactive: 0.0462
CAATCCAA	inactive: 0.0246
AGGCGTTA	inactive: -0.0569
ACGTGTAC	active: 0.367
CTCGCCGA	inactive: -0.183
AGTATAAT	inactive: 0.159
GACTACTC	inactive: 0.00883
CCGTGCAG	inactive: -0.124
GAAGCACC	inactive: -0.161
CCGGACAC	inactive: 0.0922
ATCTTGCA	≥ 0.0894
TGGCCCCA	inactive: -0.226
AGAGAACC	inactive: -0.138
ACTTGGGC	inactive: -0.214
CCTAAGAG	inactive: -0.047
GAATTCCA	inactive: 0.0917
AAATCTTC	inactive: -0.0129
GATAGAAA	inactive: 0.0286
TCCCAGGA	inactive: -0.203
CTAGATAG	inactive: 0.0481
ATACGGAA	inactive: 0.0863
ACCTGCCT	inactive: -0.114
AGTCACGC	inactive: -0.0732
CCGATCGA	inactive: -0.133
GGCCCATA	inactive: -0.172

Sequence	PBM E-score
GGACGCTA	inactive: -0.163
AAGCTTGC	inactive: -0.0998
CCGTAGAA	inactive: -0.0624
ACCGCGAC	inactive: -0.0257
GCTCAAGC	inactive: -0.211
AAAAATAA	inactive: 0.0486
TTAAGAAA	inactive: -0.034
CCCGGTCC	inactive: -0.297
AGAAAATA	inactive: 0.0566
CACGTGGG	inactive: -0.145
ATTCCCGG	inactive: -0.00757
ACAGCGAC	inactive: 0.0156
CGGCAGTA	inactive: -0.147
AGGTAGAG	inactive: -0.0323
CGGCTATC	inactive: -0.134
CTGGCCAA	inactive: -0.112
AAGGGGCC	inactive: -0.208
ACGGTTGC	inactive: -0.0605
GTTATCGA	inactive: 0.0862
ATGCGCGC	inactive: -0.0331
ACTTAAAA	inactive: 0.034
CCTTGGCA	inactive: -0.104
GTATCAAA	inactive: 0.147
CACATTCC	inactive: 0.0403
CCCATAGG	inactive: -0.163

Sequence	PBM E-score
ACGGGAGT	≥ 0.00308
CCCTGCAA	inactive: -0.0947
CTTAACAC	inactive: 0.226
AAGCCCTA	≥ -0.0227
CAAGCGTA	inactive: 0.104
CACCTCGC	inactive: -0.185
AGTTATTG	inactive: 0.11
GGTGGTCA	inactive: -0.0974
ACTCCACC	inactive: 0.00423
ATCTTTTC	inactive: 0.122
AACTATTC	inactive: 0.0523
AGGCAGAG	inactive: -0.123
AGGAGCCG	inactive: -0.281
CCCTATTC	inactive: -0.0466
CCCGCTGA	inactive: -0.187
ATTCCCGC	inactive: -0.054
ACATAGCC	inactive: 0.219
AGAGAACA	inactive: 0.194
CCACTGAA	inactive: -0.0774
CATTAGCC	inactive: -0.0809
AGCCGACC	inactive: -0.169
CTTTTAGC	inactive: -0.00461
TCACCAAA	inactive: 0.087
ACGAGATG	inactive: 0.063
GCTCTCTA	inactive: -0.085

Sequence	PBM E-score
ATGCGATG	inactive: 0.0107
GCGTAAAA	inactive: 0.0211
CGTTGAAA	inactive: -0.083
CTGGCCAG	inactive: -0.181
AACTCTAA	inactive: 0.0183
GGATGATA	inactive: 0.0469
GCGAGCAA	inactive: -0.0626
CTCTAAAC	inactive: 0.0272
CTGCCACA	inactive: -0.0532
AAGCCTGT	inactive: 0.0816
CGCCGCAC	≥ -0.0469
CGACTGTC	inactive: 0.00328
CGCAAATC	inactive: 0.00809
AGCACAAG	inactive: 0.0143
ACGCTCAA	inactive: -0.00298
CGCGCCCG	inactive: -0.298
AACCGGTC	inactive: -0.0609
CTTGAAAA	inactive: 0.018
AATTTCCC	inactive: 0.0249
ATCCCCTA	inactive: -0.106
AGACCGGA	inactive: -0.0653
CGAGAGCA	inactive: -0.0181
ATTTCCGC	inactive: -0.0418
AGATCCGA	inactive: -0.0357
GTTACCTA	inactive: 0.128

Sequence	PBM E-score
CGAAAACA	inactive: 0.148
CAGGCTAA	inactive: -0.0324
CTACTAAG	inactive: -0.0581
GTAGTCTA	inactive: 0.153
CGGTACTA	inactive: 0.0591
TGCATACA	inactive: 0.276
AGAGCATG	inactive: 0.18
AATGTTCT	inactive: 0.241
ATCCCGAA	inactive: 0.0196
TAAATTGA	inactive: 0.141
AGTAAACT	inactive: 0.0679
ACCTGAAG	inactive: -0.0739
GCGGACGA	inactive: -0.109
AGCGCGTA	≥ -0.00798
AAATAGGT	inactive: 0.122
ACACATTC	inactive: 0.251
CACTGAGA	inactive: -0.0389
AAATGAGA	inactive: -0.0175
AAGTCATG	inactive: 0.223
CGGCAGAG	inactive: -0.235
AATCGTTG	inactive: 0.0396
CCGCAACC	inactive: -0.166
AGAGGGAA	inactive: -0.167
ACACAGAA	inactive: 0.23
AACCGGGT	≥ -0.0429

Sequence	PBM E-score
GCAGGTCA	inactive: -0.0892
CAGGTCAG	inactive: -0.0274
AGAATTAA	inactive: -0.022
TCCGCCGA	inactive: -0.158
AACCGGTT	≥ 0.00831
AATGCCAT	inactive: 0.0424
GGAAACGA	inactive: 0.0372
AAGCAGCC	inactive: -0.169
TCATATGA	inactive: 0.172
ACGCTCTC	inactive: -0.0806
AGAGTGAC	inactive: -0.0692
GTAATTAA	inactive: 0.236
CTAACGTA	inactive: 0.122
GGTATCTA	inactive: 0.0972
ACACCACA	inactive: 0.262
ACCCTTGC	inactive: -0.101
CCTAATGA	inactive: -0.0552
CTATGTCA	inactive: 0.307
ACTATTGG	inactive: -0.0652
ACAACTTG	inactive: 0.271
AGGCTTTC	inactive: -0.088
CGTTGAGA	inactive: 0.00839
AAGAACCT	inactive: -0.0156
CCCGAGCG	inactive: -0.215
GATATAAA	inactive: 0.0268

Sequence	PBM E-score
GATTATGC	inactive: 0.00528
ACGGCAAC	inactive: 0.0253
ATGGAATG	inactive: 0.082
ATACAGTC	inactive: -0.00196
GGAAATAA	inactive: 0.123
AAAAGGGG	inactive: -0.207
ATCTTCGC	inactive: -0.0436
ACTGTATC	inactive: 0.137
AACGCACC	inactive: -0.0904
AGCACCTA	inactive: -0.0226
CATGACGG	inactive: -0.0266
CGGGTTAA	inactive: -0.0452
GGGGTGTA	inactive: 0.109
CGCCATCA	inactive: -0.0955
CGAGATAA	inactive: 0.045
TCGTAGAA	inactive: 0.0351
ATAGGTGC	inactive: 0.0434
CCCCGGCA	inactive: -0.211
AGGCATAG	inactive: -0.0487
CATTACAG	inactive: 0.226
AGGATAGC	inactive: -0.137
AAATGGTG	inactive: 0.096
TCAACTGA	inactive: 0.118
ACCGTCTG	inactive: -0.183
